The record followed here is PMC12136788.

First the molecules themselves.
B1: 74007183_74007383_934_CDS_ENSMUSG00000034863_ENSMUST00000093450|mouse|control|control (ssRNA)
RNA: GGGAGUUCUACAGUCCGACGAUCAGGAUAAACCAUUGCCGAUGUGUAGAAGCCCAGCCAGGCAAAAUACAUGGCAAUCUUCACCCCAAAAUAGUCACAGAUAUCAUCUAAAGGCUGGUUUUCACACACGGCCUGCACCCAGGACAACAGAGGAUUGAGCAUCA
B2: chr8:106942660:106942661:-_ENSMUSG00000035770_ENSMUST00000041769|mus_hu|FALSE|FALSE (ssRNA)
RNA: GGGAGUUCUACAGUCCGACGAUCAUUAAAAUUUAAAAUUAUACCAUAUUCCUCUUCGGCAUGUGCCUUUCCAGGAAUUCUUGUUUCUGAGGUCACUCAUUUUACUCCCGGGGACUAAGCGACCCCACCUUUAGUGAGGCCACACAACAGAGGAUUGAGCAUCA
B3: chr16:94664741:94664742:+_ENSMUSG00000040785_ENSMUST00000117648|mus_hu|mus_mus_mus_hu_False|38_58 (ssRNA)
RNA: GGGAGUUCUACAGUCCGACGAUCUGGUACUGAUCUUGGUAGCUGAUAUUCAGGAGAAAGGCUGGCCAAGGGUGUAUAAAUGCUAGUGUACUGGGGCAGGCUAGGUAACACGUUUAUGUAUGCUGGCGGUGUCUGGGUGAUAUCCAACAGAGGAUUGAGCAUCA
B4: 13967083_13969438_1710_CDS_ENSMUSG00000068036_ENSMUST00000139666|mouse|control|control (ssRNA)
RNA: GGGAGUUCUACAGUCCGACGAUCUGCCGGCAAUGCUGUCCCACUGUGGACAUCUCCUCCCAAUUCAAAGGUUGUCUCCUGAACAGCUCCAGGUUUAUGUCUUGGGCCCUUGACCAUCAGGCCUCCAUCCACAGAUCUCUUGGACAACAGAGGAUUGAGCAUCA
B5: 128802558_128804910_1938_CDS_ENSMUSG00000063317_ENSMUST00000046929|mouse|control|control (ssRNA)
RNA: GGGAGUUCUACAGUCCGACGAUCAGGUGUCAUGUCCAGGCCAGUCAAGGGGAACUUGACCAUAUUCUGAAGUUUCAUACGCCUGUCUCCUUCCUGGCGGAAUCUCUUGAGGUGUAUAAUAAGCACAUCAGGCAGAGUCCACAGCAACAGAGGAUUGAGCAUCA
B6: chr12:110720550:110720551:+_ENSG00000174437_ENST00000539276|hu_hu|motif|central (ssRNA)
RNA: GGGAGUUCUACAGUCCGACGAUCUUCUUCAAACCAAGCCAAAACAAAAGAUAUACAUGCUGCCAGUAAUAAAAUCCGGACGGGCAAGUCUUCAAACUGCUCAAUCACAAGUUCCAGCAAGGUUUUUCCUUCUUCAGCCGGUAACAACAGAGGAUUGAGCAUCA
B7: 32307255_32307489_2825_CDS_ENSG00000170759_ENST00000302418|human|control|control (ssRNA)
RNA: GGGAGUUCUACAGUCCGACGAUCUGUAGCCAGGUCCUGAACAAAGAGUUUGCGCAGGUUGUGUAAAGUCUGAAGUUCUUUUGCCACUGUCUCUUCCAAACCCUUCAAGUCUUGUCUUGCUUGUUCUCGUCUAUCUUGCAUAACCAACAGAGGAUUGAGCAUCA
B8: chr8:63386198:63386199:+_ENSMUSG00000038005_ENSMUST00000037190|mus_mus|motif|central (ssRNA)
RNA: GGGAGUUCUACAGUCCGACGAUCGGUCCCACUUCAAAGCACUGCACUAACAGGGCAGCUUGUUCAUCCUGCAAGCUGGUCGGUGUUCUCUUCACUUCUGCUUGCCAGAUGAUCUUCAAUAAUUUUUGCAAACAGAUCCCUCUUCAACAGAGGAUUGAGCAUCA
B9: 67951522_67951642_1118_3pUTR_ENSMUSG00000079614_ENSMUST00000025421|mouse|control|control (ssRNA)
RNA: GGGAGUUCUACAGUCCGACGAUCAUUUUGAAGAUUUGGAAUAUUUGAGCUCAGUGAAGGAUUUGAGUUUCCCAGCUGAGAACUCCCAUUUACUGGGCUCCCGUUACCUUUCAAAAUACCAGUACACUUCCAAUUGUCCAUGUACAACAGAGGAUUGAGCAUCA
B10: chr5:130458811:130458812:+_ENSMUSG00000066735_ENSMUST00000051758|mus_hu|FALSE|FALSE (ssRNA)
RNA: GGGAGUUCUACAGUCCGACGAUCUUUUCACUAUCUCCUCAGUCAACGCUGAGCUGACAGUUCUUCAGUGCUACACUCCAACUAAACUGUACAGUAAGUUCUGCAGAAAUGGAUCUAAUAUUUCUACCUUUAUUUACAAAUAUCCAACAGAGGAUUGAGCAUCA
B11: chr7:90019433:90019434:+_ENSMUSG00000057706_ENSMUST00000082237|mus_hu|mus_mus_mus_hu_True|88_88 (ssRNA)
RNA: GGGAGUUCUACAGUCCGACGAUCAAAUAAUACAGUGUUCUUUGCCAAAGGCCAUACCUAAAAUAAAAAGAUUUAACCCAGCUACAAAAAAGUUCACUGAACUUAAAUUAAAAUACUUGUAAACAUCUUUGCAAUAUGAAAUAUCAACAGAGGAUUGAGCAUCA
B12: chr4:144460044:144460045:+_ENSG00000153147_ENST00000283131|hu_mus|hu_hu_hu_mus_False|8_58 (ssRNA)
RNA: GGGAGUUCUACAGUCCGACGAUCACGGUCCAUAGCCUGAAGAUCAACUUGCGGAUUCCAAUCUGAGUCAUAUAAAAUUACUACAUCAGCAGUUGCAAGAUUGAUGCCCAGACCACCAGCACGUGUGCUUAACAUGAAUACAAACAACAGAGGAUUGAGCAUCA
B13: 122048412_122049300_2222_CDS_ENSMUSG00000031835_ENSMUST00000081381|mouse|control|control (ssRNA)
RNA: GGGAGUUCUACAGUCCGACGAUCGACUCUCUUGCUCCGAGGAGGGGUGGGAAUGAUCUUCACCUUGAUGGGCAGCUUCACGGUGGAAGUGUGCUCCGCACCACUGUGUAACUCUGUCUCUGCUGGGGACGCCACUGUGAUCAUCAACAGAGGAUUGAGCAUCA
B14: chr5:73476710:73476711:-_ENSMUSG00000070733_ENSMUST00000101127|mus_mus|FALSE|FALSE (ssRNA)
RNA: GGGAGUUCUACAGUCCGACGAUCAGAAUAGAGAUGUGGCAGCGGGGACAGCUGACUGAGGACUCCAUCCGUUCUCUGAACCUCCAGUUUGUGAGCAUAGCGAAACAUCUUCGGCUCCAGGAUCUGCAAGAGUUGCAUAGCAACCAACAGAGGAUUGAGCAUCA

Some of the results follow.

This assay addresses T1, UNK ZnF1-3 (human, UniProt Q9C0B0 31-174).
T1 sequence: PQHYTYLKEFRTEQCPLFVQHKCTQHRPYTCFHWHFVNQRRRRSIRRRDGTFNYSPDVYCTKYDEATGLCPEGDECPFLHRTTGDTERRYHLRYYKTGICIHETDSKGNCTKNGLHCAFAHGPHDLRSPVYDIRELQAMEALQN
The assay can be described thus: nsRBNS (natural sequence RNA bind-n-seq); RBNS binding buffer (assumed for nsRBNS): 25 mM Tris pH 7.5, 150 mM KCl, 3 mM MgCl2, 0.01% Triton X-100, 500 ug/ml BSA, 20 U/ml SUPERase-In, 4 C; UNK is unkempt and MSI1 is Musashi-1; names of the RNAs are library labels; protein concentration not given here; high values mean tight binding.
As to B1, the binding signal worked out at 0.687 enrichment R.

Take B2: the binding signal amounted to 0.948 enrichment R.

B3 had a binding signal of 0.948 enrichment R.

Regarding B4, the binding signal worked out at 0.681 enrichment R.

In turn, B5 registered a binding signal of 0.607 enrichment R.

As to B6, the binding signal is 1.2 enrichment R.

B7: the binding signal amounted to 0.738 enrichment R.

In turn, B8 had a binding signal of 0.746 enrichment R.

Turning to B9, the binding signal was 0.349 enrichment R.

The molecule B10 came in with a binding signal of 0.516 enrichment R.

The molecule B11 gave a binding signal of 1.53 enrichment R.

Molecule B12 registered a binding signal of 1.32 enrichment R.

As to B13, the binding signal was 0.871 enrichment R.

As to B14, the binding signal was determined as 2.14 enrichment R.
